# PMC4336329 (PLoS ONE, 2015)
# Among all 310,000 compounds or so, about 14,000 (4.5%) showed an effect of 50% or more. Effects have a minus sign here. The list shows a part of the results.
# Molecular target: human ether-à-go-go-related gene (hERG) potassium channel (human, UniProt Q12809)
# Test: primary screen, population patch clamp on CHO cells stably expressing hERG
# 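Further: peak tail current of the secondary pulse compared with the same well before compound.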
# Chain of human ether-à-go-go-related gene (hERG) potassium channel (Q12809 whole entry, looked up): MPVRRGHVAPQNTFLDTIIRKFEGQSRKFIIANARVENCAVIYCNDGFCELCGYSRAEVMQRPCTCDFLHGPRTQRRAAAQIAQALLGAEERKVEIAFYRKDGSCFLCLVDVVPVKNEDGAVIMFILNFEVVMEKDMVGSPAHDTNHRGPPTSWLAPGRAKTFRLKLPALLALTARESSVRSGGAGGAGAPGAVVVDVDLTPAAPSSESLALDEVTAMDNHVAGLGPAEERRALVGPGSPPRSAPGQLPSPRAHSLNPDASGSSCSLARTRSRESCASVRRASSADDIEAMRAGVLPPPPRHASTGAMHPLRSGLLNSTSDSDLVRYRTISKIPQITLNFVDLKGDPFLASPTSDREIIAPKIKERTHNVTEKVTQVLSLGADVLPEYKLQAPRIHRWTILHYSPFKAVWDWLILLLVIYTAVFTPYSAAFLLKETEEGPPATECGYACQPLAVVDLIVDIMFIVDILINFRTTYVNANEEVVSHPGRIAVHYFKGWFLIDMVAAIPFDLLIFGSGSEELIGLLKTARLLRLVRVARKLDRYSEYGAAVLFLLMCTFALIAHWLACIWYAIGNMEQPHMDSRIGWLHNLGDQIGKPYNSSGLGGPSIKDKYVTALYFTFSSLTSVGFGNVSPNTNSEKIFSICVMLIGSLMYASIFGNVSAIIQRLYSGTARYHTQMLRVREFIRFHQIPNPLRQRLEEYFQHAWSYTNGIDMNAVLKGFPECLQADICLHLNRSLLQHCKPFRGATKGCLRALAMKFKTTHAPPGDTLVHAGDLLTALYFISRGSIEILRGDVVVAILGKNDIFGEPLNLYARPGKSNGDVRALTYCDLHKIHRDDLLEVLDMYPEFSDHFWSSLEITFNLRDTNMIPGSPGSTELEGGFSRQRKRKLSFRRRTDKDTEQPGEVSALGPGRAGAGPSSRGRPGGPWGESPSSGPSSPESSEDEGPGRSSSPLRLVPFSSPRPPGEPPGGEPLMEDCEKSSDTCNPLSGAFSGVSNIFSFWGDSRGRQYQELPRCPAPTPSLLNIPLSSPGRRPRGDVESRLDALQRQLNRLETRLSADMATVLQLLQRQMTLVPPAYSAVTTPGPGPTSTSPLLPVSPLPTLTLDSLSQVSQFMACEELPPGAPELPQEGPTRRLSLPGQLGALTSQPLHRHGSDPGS
row,Compound,"hERG current change (%, negative = inhibition) at 10uM [%]"
1,C/C=C/C=C/C(=O)N1CC2(CC(c3cccc(NC(=O)CCCCC)c3)=NO2)C[C@H]1C(N)=O (stereo partly drawn),-37.4
2,Cc1cccc(/C=C/c2onc(C)c2S(=O)(=O)N2CCC(C(=O)N3CCC(C)CC3)CC2)c1,10.9
3,Br.Oc1ccc(C2CNCc3sccc32)cc1O (stereo not drawn),-5.06
4,CCSc1nc2sc3c(c2c(=O)n1CC)CC(C)(C)OC3,-1.63
5,CSc1cccc(N2CC(C(=O)N(Cc3nnc(-c4ccccc4Cl)o3)C3CC3)CC2=O)c1 (stereo not drawn),-55.5
6,C/C(CC(=O)Nc1ccc2c(c1)OCCO2)=N\NC(=O)c1ccccn1,32.8
7,CCOc1ccc(N2CC(C(=O)NNC(=O)c3ccc(Br)cc3)CC2=O)cc1 (stereo not drawn),-1.21
8,CN(C(=O)CSc1nc2c(c(=O)[nH]1)CCCC2)C1CCCCC1,-9.01
9,CC(=O)c1ccc(OCCCC(=O)NCC(c2ccco2)N(C)C)cc1 (stereo not drawn),-28.1
10,CCC(=O)c1ccc(N2CCN(C(=O)Cc3ccccc3)CC2)c(F)c1,-36.5
11,CCc1nnc(NS(=O)(=O)c2ccc(NC(=O)c3cccc4ccccc34)cc2)s1,20.4
12,Cc1cnc(C(=O)OCc2csc(CC(=O)Nc3ccccc3C)n2)cn1,1.21
13,CCc1ccc(/C=N/NC(=O)c2c[nH]c3ccccc23)s1,-19.1
14,O=C(NCC(c1ccco1)N1CCc2ccccc2C1)C(=O)Nc1ccccc1F (stereo not drawn),8.09
15,CCCCN(C)S(=O)(=O)c1cc(Br)cc2c1N(C(=O)C1CC1)CC2,-51.6
16,Cc1cc(C)c(O)c(C2(O)C(=O)c3ccccc3C2=O)c1,6.77
17,O=C(Cc1ccccc1F)Nc1ccc2c(c1)CCC2,6.59
18,O=C(CN1CCOCC1)Nc1ccc(NC(=O)c2ccccc2F)cc1,10.7
19,O=C1CC(c2ccccc2)CN1C(=O)c1cccc([N+](=O)[O-])c1 (stereo not drawn),-4.87
20,CCC1(CC)NC(=O)N(CC(=O)OCC(=O)Nc2ccc(OC(F)(F)F)cc2)C1=O,-25.2
21,O=C1NC(=O)[C@]2(Cc3ccccc3N3CCN(c4ccccc4)CC32)C(=O)N1Cc1ccccc1 (stereo partly drawn),-3.82
22,Cc1c(/C=C/C(=O)c2cccs2)cnn1C,-0.723

row,Compound,"hERG current change (%, negative = inhibition) at 10uM [%]"
1,Nc1cccc2c1C(=O)N(C(=O)c1cccc(S(=O)(=O)N3CCCCCC3)c1)C2=O,-9.14
2,Cc1ccc(-c2nnc3sc(CCc4ccccc4)nn23)cc1,6.39
3,O=C(O)COc1ccccc1/C=C1\SC(=S)N(c2cccnc2)C1=O,-10.1
4,COc1ccc(C(CCN2CCCC(C)C2)c2c(OC)cc(OC)c3c(C)cc(=O)oc23)cc1 (stereo not drawn),-74.3
5,COc1ccc(CCN2C(=O)C3C4C=CC(C3C2=O)C2C(=O)N(CCc3ccc(OC)c(OC)c3)C(=O)C42)cc1OC (stereo not drawn),-20.2
6,COc1ccc(CC2C(=O)N(C)C(=O)N(C)C2=O)c(OC)c1,19.6
7,CN1CCN(c2ccc(C(F)(F)F)cc2NC(=O)Nc2ccccc2)CC1,-17.2
8,COc1cccc(CNCc2cc(OC)cc(OC)c2)c1.O=C(O)C(=O)O,-12.6
9,O=S(=O)(c1ccc(F)cc1)c1nc(-c2ccco2)oc1Nc1ccc(F)cc1,-18.8
10,CCc1nc(NCCC(C)C)c(C#N)c2c1CCCC2,23.4
11,CCc1ccc(C2=NNC(=Nc3c(C)n(C)n(-c4ccccc4)c3=O)SC2)cc1,34.4
12,O=C(CN1C(=O)c2ccccc2C1=O)OCC(=O)N1CCc2ccccc2C1,-17.2
13,C=CCNc1nc2c(c(=O)[nH]c(=O)n2C)n1CCOc1ccccc1,-29.6
14,COc1cccc(NC(=O)CN(C)C(=O)c2ccc(NS(=O)(=O)c3ccc(F)cc3)cc2)c1,-7.97
15,O=C(O)CCc1nc2cc(Cl)ccc2n(Cc2ccccc2)c1=O,22.2
16,CCOc1ccc(C(=O)NC2CCN(C(=O)N3CCCC3)CC2)cc1,2.08
17,Cc1[nH]c2ccccc2c1-c1nc(N)sc1C,19.7
18,Cc1c(Cl)cccc1NC(=S)NCC1COc2ccccc2O1 (stereo not drawn),11.9
19,N#Cc1ccc(C2=CC(=O)C[C@H](c3ccc(Cl)cc3)C2)cc1,-71.9
20,COc1ccc(OC)c2sc(NC(=O)C3CC3)nc12,-5.76
21,CCOC(=O)Cn1c(=NC(=O)c2cccs2)sc2cc(C(=O)OC)ccc21,17.4
22,O=C(c1cccc(NS(=O)(=O)c2cccc(F)c2)c1)N1CCN(c2ccccc2)CC1,-8.41

row,Compound,"hERG current change (%, negative = inhibition) at 10uM [%]"
1,CCCOc1ccc(CSc2ncn[nH]2)cc1,-4.54
2,CCOC(=O)C1CCCN(C(=O)/C=C/c2ccc(Cl)cc2)C1 (stereo not drawn),-59.9
3,Cc1ccc(N(CC(=O)N2CCCCCC2)S(C)(=O)=O)cc1Cl,9.84
4,C1CCN(c2nc3nonc3nc2N2CCCCC2)CC1,-4.04
5,COc1ccccc1-n1nnnc1SCc1ccccc1,-13.7
6,COc1ccc(S(=O)(=O)NN(C)C(=O)c2nn(-c3ccccc3)ccc2=O)cc1,-17
7,COC(=O)C1=C(C(=O)OC)[C@@H]2N(C)c3ccccc3[C@@]23C[C@@H](C(=O)OC)N(C(C)=O)C3=N1,0.626
8,COc1cc(C)c(S(=O)(=O)N2CCOCC2)cc1C,7.75
9,CCCC1CCC(=NNC(=O)CNc2ccc(OC)cc2)CC1 (stereo not drawn),4.71
10,O=C(c1cc2n(n1)C(C(F)(F)F)CC(c1ccc(Cl)cc1)N2)N1CCCC1 (stereo not drawn),0.915
11,C=CCOCCN1C(=O)C2C3C=CC(C2C1=O)C1C2C(=O)N(CCOCC=C)C(=O)C2C31 (stereo not drawn),-17.2
12,CN(C)CCc1c[nH]c2ccc(Cn3cncn3)cc12.O=C(O)c1ccccc1,-5.06
13,Cc1cc(C)c(NC(=O)Nc2ccc3c(c2)OCO3)c(C)c1,18
14,Cc1cccc(NC(=O)C2CC(=O)N(c3ccccc3)C2)c1C (stereo not drawn),6.13
15,COC(=O)C1=C(c2ccc(F)cc2F)C[C@@H]2CC[C@H]1N2C(=O)NCCOc1ccccc1,-23.5
16,O=C(COc1ccccc1)Nc1nc2ccccc2[nH]1,14.1
17,COC(=O)c1nn(-c2ccccc2)c(Sc2ccccc2)c1/C=N/O,8.24
18,COc1ccc(C(=O)NCCSc2ccccc2)cc1OC,-11
19,Cc1ccccc1OCCC(=O)OCC(=O)Nc1ccc2[nH]c(=O)[nH]c2c1,3.11
20,COc1ccc(N=CC2=C(O)CC(C)(C)CC2=O)cc1OC,10.9
21,NCCc1nc2ccccc2s1,30.8
22,COc1cc(C)c(NC(=O)COc2ccc3c(c2)OCO3)cc1C,14.6

row,Compound,"hERG current change (%, negative = inhibition) at 10uM [%]"
1,Cc1cc(C)c(C#N)c(SCC(=O)NC2CC2)n1,9.6
2,CC(C)(C)NC(=O)c1ccc2c(c1)C(=O)N(Cc1ccco1)C2=O,8.85
3,CCOC(=O)c1[nH]c(C)c(CCC(=O)OC)c1C,7.41
4,O=C(CSc1nc2ccccc2c(=O)[nH]1)Nc1cccc([N+](=O)[O-])c1,15.3
5,CN(Cc1cc(-c2ccccc2)on1)C(=O)c1cc(COc2c(F)cccc2F)on1,3.7
6,CC(CC(=O)N(C)c1c(N)n(Cc2ccccc2)c(=O)[nH]c1=O)c1ccccc1 (stereo not drawn),-23.3
7,Cc1cc(C)n(-c2nc(C)nc3sc4c(c23)CCC(C)C4)n1 (stereo not drawn),-4.75
8,O=C(OCC(=O)N1CCc2ccccc21)c1cccnc1Cl,7.79
9,Cc1nnc(NC(=O)c2cccc(S(=O)(=O)N3CCOCC3)c2)s1,7.89
10,O=C(O)c1cc(-c2ccc(/C=N/N3C(=O)C4C5C=CC(C6CC56)C4C3=O)o2)ccc1Cl (stereo not drawn),16.4
11,COc1ccc(-c2cc3ccc(OCC(=O)NCC4CCC(C(=O)O)CC4)cc3oc2=O)cc1 (stereo not drawn),2.02
12,CCOC(=O)c1sc(NC(=O)COC(=O)Cn2cnc3ccccc32)c(C(=O)OCC)c1C,10.1
13,C=CCn1c(CSc2nc3ccccc3s2)nnc1SCC(=O)NCc1ccccc1,-43.9
14,COc1ccc(C(C)=O)cc1COc1ccc(Cl)cc1Cl,3.09
15,C=CCc1cc(Cl)ccc1OCCOCCNC(C)(C)C.O=C(O)C(=O)O,-49.5
16,COC(=O)c1c(C)oc(C)c1S(=O)(=O)NC(C)(C)C,0.959
17,C=CCn1cc(C(=O)N2CCN(C)CC2)c(=O)c2cc(S(=O)(=O)N3CCCC3)ccc21,8.69
18,CSc1ccccc1OCc1cc(C(=O)N2CCc3c(Cl)cccc3C2)no1,5.8
19,Cc1c(C)c2ccc(OCC(=O)N3CCC(C(=O)O)(c4ccccc4)CC3)c(C)c2oc1=O,14.9
20,Nc1ccc2c(c1)ncn2CCCn1cnc2cc(N)ccc21,-14.7
21,c1cnc2nc(CSc3ncn[nH]3)cn2c1,7.08
